Drawing on PubChem BioAssay AID488969 (Vanderbilt High Throughput Screening Facility, 2010), this text covers z-score for one molecule.

Molecules are shown by their SMILES. The full ranking holds about 110,000 compounds; the median of “z-score” is about -0.1, and the highest 2% start at about 2. The list shows a part of the results.

For the assay, the target named is Metabotropic glutamate receptor 8 (Rattus norvegicus) (UniProt P70579). Put plainly: mGluR8 Gi/Go-coupled signaling modulation – cell-based, rat, thallium flux, HTS, primary screen (AID 488969). Conditions: HEK293 rat mGluR8, GIRK (G protein-gated inwardly rectifying potassium channel) thallium flux, FluoZin2; at 10 µM; stronger effect = higher value; submaximal glutamate (EC20) added with thallium.
Sequence of UniProt P70579 (P70579 whole entry, looked up): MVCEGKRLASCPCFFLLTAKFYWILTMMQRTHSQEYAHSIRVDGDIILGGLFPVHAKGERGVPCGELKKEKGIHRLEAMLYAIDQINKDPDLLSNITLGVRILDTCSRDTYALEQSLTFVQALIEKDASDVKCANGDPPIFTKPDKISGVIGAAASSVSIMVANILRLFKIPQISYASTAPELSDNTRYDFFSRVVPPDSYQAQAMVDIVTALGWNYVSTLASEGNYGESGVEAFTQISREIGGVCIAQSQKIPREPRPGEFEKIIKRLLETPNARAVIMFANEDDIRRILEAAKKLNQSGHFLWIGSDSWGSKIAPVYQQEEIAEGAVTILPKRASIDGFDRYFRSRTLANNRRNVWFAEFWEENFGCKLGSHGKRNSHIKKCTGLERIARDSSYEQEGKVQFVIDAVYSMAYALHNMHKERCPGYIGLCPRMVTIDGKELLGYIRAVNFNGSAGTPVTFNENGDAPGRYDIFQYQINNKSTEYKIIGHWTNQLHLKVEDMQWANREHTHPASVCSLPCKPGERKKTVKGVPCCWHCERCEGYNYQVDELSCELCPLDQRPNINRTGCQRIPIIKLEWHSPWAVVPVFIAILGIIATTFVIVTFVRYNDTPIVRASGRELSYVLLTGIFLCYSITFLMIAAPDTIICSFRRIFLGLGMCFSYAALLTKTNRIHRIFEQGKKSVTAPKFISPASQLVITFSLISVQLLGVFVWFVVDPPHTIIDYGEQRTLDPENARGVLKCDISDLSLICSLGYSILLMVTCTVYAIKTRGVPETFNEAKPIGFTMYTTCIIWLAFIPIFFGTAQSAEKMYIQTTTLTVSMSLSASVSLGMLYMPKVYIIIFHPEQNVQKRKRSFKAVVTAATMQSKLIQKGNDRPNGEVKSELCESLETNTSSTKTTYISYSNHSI
The molecule `O=C1NN(c2ccc(F)c(Cl)c2)C(=O)/C1=C\c1cccc(OC(=O)c2cccs2)c1` came in with a z-score of 0.335.
